In publication PMC4336329 (PLoS ONE, 2015):
Hit rate of the full screen: of about 310,000 compounds, about 2,200 (0.71%) showed an effect of 50% or more. Effects have a minus sign here. The list shows a part of the results.

Target: human ether-à-go-go-related gene (hERG) potassium channel (human, UniProt Q12809)
Experiment: primary screen, population patch clamp on CHO cells stably expressing hERG

Sequence of human ether-à-go-go-related gene (hERG) potassium channel (Q12809 whole entry, looked up): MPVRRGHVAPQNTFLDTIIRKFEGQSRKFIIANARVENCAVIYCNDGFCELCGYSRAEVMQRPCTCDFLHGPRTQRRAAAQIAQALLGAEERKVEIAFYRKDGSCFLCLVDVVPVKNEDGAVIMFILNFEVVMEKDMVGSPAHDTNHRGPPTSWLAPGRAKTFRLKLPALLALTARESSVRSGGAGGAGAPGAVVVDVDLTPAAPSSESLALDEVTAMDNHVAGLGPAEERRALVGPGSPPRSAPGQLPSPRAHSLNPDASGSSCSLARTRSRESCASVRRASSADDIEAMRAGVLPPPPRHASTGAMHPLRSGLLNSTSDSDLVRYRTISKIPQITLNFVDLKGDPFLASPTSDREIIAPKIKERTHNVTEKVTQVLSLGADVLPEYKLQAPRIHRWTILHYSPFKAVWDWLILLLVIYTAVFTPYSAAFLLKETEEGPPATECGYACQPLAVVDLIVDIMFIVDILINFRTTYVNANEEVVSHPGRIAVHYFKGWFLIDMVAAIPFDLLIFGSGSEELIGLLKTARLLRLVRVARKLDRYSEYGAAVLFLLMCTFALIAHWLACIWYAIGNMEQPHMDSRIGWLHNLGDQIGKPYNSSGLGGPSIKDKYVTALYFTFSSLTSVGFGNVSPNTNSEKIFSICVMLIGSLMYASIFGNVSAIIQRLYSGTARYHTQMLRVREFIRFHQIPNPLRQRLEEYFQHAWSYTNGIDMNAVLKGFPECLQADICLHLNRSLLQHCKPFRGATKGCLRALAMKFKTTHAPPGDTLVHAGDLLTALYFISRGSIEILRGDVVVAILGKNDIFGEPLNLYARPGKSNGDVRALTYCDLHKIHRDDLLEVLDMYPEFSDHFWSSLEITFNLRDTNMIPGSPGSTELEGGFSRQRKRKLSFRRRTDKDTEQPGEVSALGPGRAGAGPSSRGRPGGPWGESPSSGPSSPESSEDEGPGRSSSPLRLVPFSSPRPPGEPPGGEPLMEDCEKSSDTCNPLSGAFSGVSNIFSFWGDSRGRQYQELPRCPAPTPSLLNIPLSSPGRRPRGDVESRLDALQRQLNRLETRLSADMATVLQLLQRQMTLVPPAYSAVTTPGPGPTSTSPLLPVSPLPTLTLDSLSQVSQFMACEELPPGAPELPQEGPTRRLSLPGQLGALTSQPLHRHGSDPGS

Row | SMILES | hERG current change (%, negative = inhibition) at 1uM [%]
1 | Cc1ccccc1NC(=O)NCCN1CC1 | 7.94
2 | O=C(c1cc2cc(Cl)ccc2[nH]1)N1CCN(Cc2ccc3c(c2)OCO3)CC1 | 15.3
3 | COC(=O)C1(NC(=O)NC23CC4CC(CC(C4)C2)C3)CCCCC1 | 8.25
4 | COc1cccc(NC(=O)CN(C)C(=O)COc2cc(C)ccc2Cl)c1 | -3.58
5 | COC(=O)C1C(O)CCC2CN3CCc4c([nH]c5ccccc45)C3CC21 (stereo not drawn) | 1.1
6 | Cc1ccc(CNC(=O)c2cn(C3CCCC3)c(=O)c3c2c2ccccc2n3C)o1 | 5.32
7 | O=S(=O)(NCCCCNS(=O)(=O)c1ccc(F)cc1)c1ccc(F)cc1 | 1.12
8 | COc1cc(-c2noc(C)c2C#Cc2ccc(N)cc2)cc(OC)c1OC | 0.236
9 | Cc1ccc(S(=O)(=O)N2CCN(C(=O)C3CCCO3)CC2)cc1 (stereo not drawn) | 9.34
10 | Cn1c(-c2c(N)n(C3CCCC3)c3nc4ccccc4nc23)nc2ccccc21 | 11.8
11 | COc1cc2ccccc2cc1C(=O)N1CCOCC1 | -16.7
12 | Cc1ccc(S(=O)(=O)N(C)C/N=C(\N)N[N+](=O)[O-])cc1 | 14.8
13 | COc1ccc(/C=C2/SC(=S)N(CC(=O)O)C2=O)cc1OCc1ccc(Cl)cc1 | 17.6
14 | COc1ccc(CCN2CCCC(CN(C)C(=O)c3ccoc3C)C2)cc1 (stereo not drawn) | 18.4
15 | Cc1ccc(-c2cc(C(=O)N3CCN(C4CCS(=O)(=O)C4)CC3)c3ccccc3n2)cc1 (stereo not drawn) | -3.04
16 | O=C(Nc1ccc(Cl)cc1)C1CC(=O)n2c(nc3ccccc32)N1 (stereo not drawn) | 8.1
17 | COc1ccc(Cn2c(C(F)(F)F)ccc(C(N)=O)c2=O)cc1 | 11.5
18 | Cc1cccc(OCC(=O)Nc2ccc3c(c2)nc(CCN2CCCCC2)n3C)c1 | -58.3
19 | O=C(COc1ccc(Br)cc1)NCCCn1ccnc1 | 15.1
20 | COCCCN1C(=O)C(=O)/C(=C(/O)c2ccc(S(=O)(=O)N3CCCCC3)cc2)C1c1ccc(O)c(OC)c1 (stereo not drawn) | -6.76
21 | CCOc1ncccc1C(=O)Nc1nc(C(C)(C)C)cs1 | -0.695
22 | Cc1c(C)c2ccc(OS(C)(=O)=O)c(C)c2oc1=O | 1.94
23 | CC1(C)CC(=O)C2=C(C1)c1c(ccc3ccccc13)NC2c1ccco1 (stereo not drawn) | 6.38

Row | SMILES | hERG current change (%, negative = inhibition) at 1uM [%]
24 | O=C(N/N=C1\CCS(=O)(=O)c2ccc(F)cc21)c1ccc(O)cc1 | 8.27
25 | CCc1cc2c(=O)c(-c3nc4ccccc4n3C)c(C)oc2c(CN2CCCCC2)c1O | 0.017
26 | COc1ccc(NC(=O)c2cc3c(=O)n4ccccc4nc3n2C)cc1OC | 11.4
27 | Cc1ccc2c(c1)N=C(c1ccc(F)cc1)CO2 | 12.6
28 | Cc1ccc(S(=O)(=O)N2CCOCC2)cc1NC(=O)COc1ccc(-c2nnco2)cc1 | -17.3
29 | COc1ccccc1N(O)C1CC(=O)N(c2ccc(F)cc2)C1=O (stereo not drawn) | 10.9
30 | Cc1nn(Cc2c(F)c(F)c(F)c(F)c2F)c(C)c1NC(=O)c1ccnn1C | -11.8
31 | COc1ccc2c(c1OC)C(=O)N1C2SC(C)(C)[C@H]1C(=O)NC1CC1 (stereo partly drawn) | 11.9
32 | O=S(=O)(/N=C(/c1ccccc1)N1CCCCC1)c1ccccc1 | 8.37
33 | O=C(Cn1nc2ccccc2n1)N/N=C/c1ccc(F)cc1 | 9.25
34 | CCC(=Nc1ccccc1N)c1c(O)[nH]c(=O)[nH]c1=O | 16.3
35 | CCOC(=O)N1CCN(C(=O)C2CCN(c3ncnc4c3sc3cccc(F)c34)CC2)CC1 | -24.5
36 | Cl.O=C(COc1ccc(Br)cc1)NCCN1CCCC1 | -5.54
37 | CCOC(=O)C(=O)Cc1nc2ccccc2s1 | 5.66
38 | Cc1nc2ccsc2c(=O)n1-c1cccc(Cl)c1 | 13.7
39 | CCOC(=O)NC1(Nc2cccc(Cl)c2)Oc2ccccc2O1 | 13.7
40 | CCOCCCNC(=O)C1CC(=O)N(CCc2ccc(C)cc2)C1 (stereo not drawn) | 7.88
41 | CC1CC(Nc2ccccc2)c2ccccc2N1C(=O)c1cccnc1 (stereo not drawn) | 8.38
42 | CCC(C)NS(=O)(=O)c1ccc(OCC(=O)NCc2ccccn2)cc1 (stereo not drawn) | 5.8
43 | O=C(NCCc1cccs1)c1ccc(CS(=O)Cc2ccc(Cl)cc2)o1 (stereo not drawn) | -11.4
44 | COc1ccc(S(=O)(=O)N2CCc3cc4c(cc3C2C)OCCCO4)cc1 (stereo not drawn) | 8.24
45 | CCOP(=O)(OCC)C(NC(=O)c1ccccc1Cl)=C(Cl)Cl | 20.7
